# Hit rate of the full screen: of about 310,000 compounds, about 14,000 (4.5%) showed an effect of 50% or more. Effects have a minus sign here. Some of the results follow.
# Target: human ether-à-go-go-related gene (hERG) potassium channel (human, UniProt Q12809)
# Test: primary screen, population patch clamp on CHO cells stably expressing hERG
# 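Also: peak tail current of the secondary pulse compared with the same well before compound.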
# Chain of human ether-à-go-go-related gene (hERG) potassium channel (Q12809 whole entry, looked up): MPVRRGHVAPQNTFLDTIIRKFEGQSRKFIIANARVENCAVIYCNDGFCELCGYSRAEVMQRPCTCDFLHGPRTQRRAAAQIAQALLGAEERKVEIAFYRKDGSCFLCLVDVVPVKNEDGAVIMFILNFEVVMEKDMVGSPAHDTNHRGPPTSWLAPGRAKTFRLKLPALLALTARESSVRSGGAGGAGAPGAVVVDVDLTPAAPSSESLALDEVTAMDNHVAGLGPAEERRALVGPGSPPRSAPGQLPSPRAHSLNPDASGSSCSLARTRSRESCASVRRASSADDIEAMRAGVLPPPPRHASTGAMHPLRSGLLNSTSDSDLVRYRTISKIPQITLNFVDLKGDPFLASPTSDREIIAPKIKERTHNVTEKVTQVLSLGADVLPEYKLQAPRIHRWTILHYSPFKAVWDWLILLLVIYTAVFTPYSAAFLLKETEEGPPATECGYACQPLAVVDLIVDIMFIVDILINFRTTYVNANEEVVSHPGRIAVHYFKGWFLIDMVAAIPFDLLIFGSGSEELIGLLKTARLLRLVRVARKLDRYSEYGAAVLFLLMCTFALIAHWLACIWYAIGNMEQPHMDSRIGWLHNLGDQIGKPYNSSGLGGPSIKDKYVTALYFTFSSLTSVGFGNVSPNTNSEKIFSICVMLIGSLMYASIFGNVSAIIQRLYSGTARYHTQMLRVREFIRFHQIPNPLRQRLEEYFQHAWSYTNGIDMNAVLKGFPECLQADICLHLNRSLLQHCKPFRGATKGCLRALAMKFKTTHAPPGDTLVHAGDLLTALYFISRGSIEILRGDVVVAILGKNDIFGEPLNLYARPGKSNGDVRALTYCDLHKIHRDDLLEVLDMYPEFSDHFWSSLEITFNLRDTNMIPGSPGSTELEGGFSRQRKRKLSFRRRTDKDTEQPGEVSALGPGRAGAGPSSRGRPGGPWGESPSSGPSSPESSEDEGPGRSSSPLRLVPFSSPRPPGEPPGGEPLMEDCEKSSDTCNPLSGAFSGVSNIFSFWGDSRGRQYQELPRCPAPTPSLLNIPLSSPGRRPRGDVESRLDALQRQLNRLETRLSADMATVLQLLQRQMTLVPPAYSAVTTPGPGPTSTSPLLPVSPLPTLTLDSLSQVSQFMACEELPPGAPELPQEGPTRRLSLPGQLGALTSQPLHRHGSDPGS
row,SMILES,"hERG current change (%, negative = inhibition) at 10uM [%]"
1,Cc1cccc(-n2cc(CN3CCN(C(=O)c4ncn[nH]4)CC3)c(-c3cccc(F)c3)n2)c1,-16.5
2,C#CCOCCOCCOCCNc1nc(N2CCN(C(=O)C(Cc3ccc(O)cc3)n3cc(C(N)CC(C)C)nn3)CC2)nc(N2CCN(C(=O)C(Cc3cc4ccccc4[nH]3)n3cc(C(N)C(C)CC)nn3)CC2)n1.Cl (centres unmarked),10.3
3,Br.N=C1c2ccccc2CN1NC(=O)c1cccc(S(=O)(=O)N2CCCCC2)c1,13.5
4,CC(C)NC(=O)c1ccc(N(Cc2ccc(Cl)cc2)S(C)(=O)=O)cc1,-17.4
5,Cc1nc(SCC(=O)c2ccccc2)[nH]c(=O)c1Oc1ccc(Cl)cc1,18.4
6,CCCC(=O)NC(Nc1ccccc1F)C(Cl)(Cl)Cl (centres unmarked),-8.18
7,CCC(C(=O)O)N1C(=O)c2ccccc2C1=O (centres unmarked),10.1
8,Cc1oc2ccc(O)c(CN(C)C)c2c1C(=O)c1ccccc1,-42.4
9,CC(=O)Nc1ccc(C)cc1,12.2
10,Clc1ccc(/C=C/c2nc(Cl)c(-c3ccc(Cl)cc3)c(Cl)n2)cc1,23.9
11,O=C1c2ccccc2NC(c2ccc(Cl)cc2Cl)N1Cc1ccccc1 (centres unmarked),-2.71
12,Cc1ccccc1NC(=S)NNC(=O)c1ccncc1,11.3
13,CC(=O)CSc1nc2c(c(=O)[nH]c(=O)n2C)n1Cc1ccccc1Cl,9.56
14,O.O=c1c(O)c(-c2ccc(O)c(O)c2)oc2cc(O)cc(O)c12,0.53
15,COC(=O)Cc1[nH]nc2c1C(c1c[nH]c3ccccc13)C(C#N)=C(N)O2 (centres unmarked),17.8
16,Cc1cc(C)nc(N2CCC(C(=O)NCc3ccccc3)CC2)n1,3.44
17,CC(C)(C)c1cc(C(=O)NNc2cc(C(F)(F)F)ccc2Cl)n(Cc2ccccc2)n1,-2.61
18,CC(=O)N1c2ccc(S(=O)(=O)N3CCC(C(=O)NCc4ccc(N(C)C)cc4)CC3)cc2CC1C (centres unmarked),18.8
19,CCOc1ccc(CN(C(=O)c2ccco2)C2CCS(=O)(=O)C2)cc1 (centres unmarked),-0.726
20,O=C(Cn1c(CN2CCCCC2)nc2ccccc2c1=O)NCc1ccco1,-15.4
21,CCOC(=O)C(=CNc1cc(C)nn1-c1ccc(C)cc1)C(=O)OCC,-25.5
22,COc1ccc(Nc2nc(N3CCCCC3)nc(N3CCCCC3)n2)c(OC)c1,15.2

row,SMILES,"hERG current change (%, negative = inhibition) at 10uM [%]"
1,COc1ccc(Cl)cc1NC(=S)NCCSc1ccc(C)cc1,11.9
2,O=C(NC1CC(=O)N(c2ccccc2)C1)C1CC1 (centres unmarked),0.461
3,CSCCC(NC(=O)c1cccc([N+](=O)[O-])c1)C(=O)O (centres unmarked),4.08
4,O=C(O)CSCC(=O)c1ccccc1,6.46
5,COc1ccc(C2CC(=O)c3cnc(N4CCN(Cc5ccccc5)CC4)nc3C2)cc1 (centres unmarked),-5.45
6,CCOC(=O)c1c(C)[nH]c(C(=O)Nc2ccc(NC(C)=O)cc2)c1C,2.71
7,Cc1ccc(-c2ncns2)cc1,1.96
8,O=C(COC(=O)Cc1ccc2c(c1)OCCO2)Nc1ccc(S(=O)(=O)N2CCCC2)cc1,10.5
9,COc1ccc(CNC(=O)/C=C/c2ccc3[nH]cc(CCN(C)C)c3c2)cc1,-11.2
10,O=C(CCc1nc(-c2ccccc2F)no1)NC1CCCCCC1,-1.9
11,CCOc1nc(-c2ccncc2)nc2ccccc12,-10.6
12,COc1ccc(C2CC(=O)c3cnc(N4CCc5ccccc54)nc3C2)cc1OC (centres unmarked),7.43
13,COc1cc(-c2nnc(SCC(=O)N(Cc3ccccc3)C(C)(C)C)o2)cc(OC)c1OC,-5.5
14,CCn1cc(CN2CCCC(C(=O)c3ccc(-c4ccccc4)cc3)C2)cn1 (centres unmarked),-59.1
15,CCCn1c(N2CCN(C)CC2)nc2c1c(=O)[nH]c(=O)n2C,-13.5
16,O=C(N/N=C/c1c[nH]c2ccccc12)c1cccc(O)c1,18.6
17,O=C(COC(=O)COc1ccccc1Cl)Nc1ccccc1OC(F)F,16.1
18,C=CCn1c(CNC(=O)c2cccs2)nnc1SCc1ccc(Cl)cc1Cl,-41.7
19,CCOC(=O)c1cc2c(ccn2C)n1Cc1ccc(Cl)cc1,16.7
20,CNC(=O)c1cc2c(s1)CCCCCC2,-1.62
21,COCC1CCCN(C(=O)c2cc(COc3cccc4cccnc34)on2)C1 (centres unmarked),1.78
22,O=C(NCCc1ccc(Cl)cc1)C1CCN(S(=O)(=O)c2cccs2)CC1,-71.2

row,SMILES,"hERG current change (%, negative = inhibition) at 10uM [%]"
1,COc1ccc(-c2nn(CCC(=O)O)cc2/C=C2\SC(N)=NC2=O)cc1OC,2.99
2,Cc1cccc(C)c1OCC(=O)N/N=C/c1ccncc1,15.4
3,COc1ccc(OC)c(NC(=O)C2CCCN(S(=O)(=O)c3c(C)noc3C)C2)c1 (centres unmarked),-16.8
4,CN(Cc1ccccc1)C(=O)C1CCN(S(=O)(=O)c2ccc3nc4c(c(C(=O)O)c3c2)CCCC4)CC1,2.84
5,CC(C)N(CCCNC(=O)Cn1c(=O)c2cccn2c2ccccc21)Cc1ccccc1,-21.7
6,Cc1noc(C)c1COC(=O)CCN1c2ccccc2Sc2ccccc21,7.54
7,NC(=O)C1CCN(C(=O)c2cn(-c3ccccc3)nc2-c2cccnc2)CC1,17.5
8,COc1ccc(/C=C/C2=CC(C)(C)NC(=S)N2)cc1OC,18.7
9,Cc1ccc(S(=O)(=O)N(CCO)Cc2ccccc2)cc1,5.9
10,CCSc1nnc(NC(=O)CSc2nc3c(c(=O)n2CC)SC(C)C3)s1 (centres unmarked),6.95
11,Cc1cccc(NC(=O)c2cc3c([nH]c4ccccc43)c(C)n2)c1C,11.6
12,O=C(C1=C(O)C(=O)N(CC2CCCO2)C1c1ccccc1Cl)c1ccco1 (centres unmarked),9.48
13,C#CCOCCOCCOCCNc1nc(N2CCN(C(=O)[C@H](Cc3cc4ccccc4[nH]3)n3cc([C@@H](N)C(C)CC)nn3)CC2)nc(N2CCN(C(=O)[C@H](CCCCN)n3cc([C@@H](N)CO)nn3)CC2)n1.Cl (some centres unmarked),7.98
14,Cc1cc(C)n(/N=C/c2ccco2)c(=O)c1C#N,-0.185
15,Cc1c(N=C2SCC(=O)N2/N=C/c2ccccc2Cl)c(=O)n(-c2ccccc2)n1C,-17.5
16,CCCCCCCCCCCCCC(=O)O,10.2
17,O=c1[nH]c(O)c(/C=C2\C=Nc3ccc(OCc4ccccc4)cc32)c(=O)[nH]1,24.9
18,COc1ccc(C(=O)OCC2CC(c3ccccc3)=NO2)cc1OC (centres unmarked),-4.79
19,COc1cc(OC)nc(NC(=O)CSc2nc3ccccc3o2)n1,0.663
20,CC(C)c1ccc(NS(=O)(=O)c2ccc3[nH]cc(C(=O)N4CCC(C(N)=O)CC4)c(=O)c3c2)cc1,19.1
21,O=C(c1ccccc1)N1CCN(C(=O)c2ccncc2)CC1,14.3
22,O=C(NCc1ccccc1Cl)C1CCC(CNc2nc(=S)[nH]c3ccccc23)CC1 (centres unmarked),16.9

row,SMILES,"hERG current change (%, negative = inhibition) at 10uM [%]"
1,CSc1nc(N)nc(SCC(=O)C23CC4CC(CC(C4)C2)C3)c1C#N,2.08
2,Cc1ccc(NS(=O)(=O)c2cc3c4c(cccc4c2)C(=O)NC3=O)cc1C,0.475
3,CCSc1ccc2cc(OC)ccc2[n+]1CC.[I-],10.8
4,COc1ccc2c(c1)[C@]13CCCCC1C(C2)N(C)CC3 (some centres unmarked),-1.83
5,CC1=NN(C(N)=S)C(C)(C)C1,18
6,Cc1cccc(NS(=O)(=O)c2cccc(C(=O)NCC(c3ccco3)N(C)C)c2)c1 (centres unmarked),-16.6
7,COc1ccc(CN2CCN(CC=C(C)C)C(CCO)C2)cc1Cn1cccn1 (centres unmarked),-31.2
8,CCC(C)(C)NC(=O)CCCSc1nc2ccccc2s1,-2.19
9,COc1ccc(-c2cc(C(F)(F)F)nc(SCC(=O)Nc3ccc4c(c3)OCO4)n2)cc1,1.32
10,Cc1cc(C)c(C(=O)NNC(=O)c2cccnc2)c(C)c1,17.5
11,COc1ccc(-c2nnc3n2-c2ccccc2SC3)cc1OC.Cl,16.2
12,COC(=O)[C@@H]1[C@H](CCc2ccccc2)NC(=O)N(Cc2ccccc2)[C@@H]1C,-15.1
13,CCN(CC(=O)NC1CCS(=O)(=O)C1)c1nc(-c2cccnc2)nc2ccccc12 (centres unmarked),-40.2
14,Cn1c(CNC(=O)c2ccc(Cl)cc2)nnc1SCC(=O)Nc1sc2c(c1C#N)CCCC2,-4.19
15,I.c1ccc2c(c1)nc(N1CCCCCC1)c1ccccc12,0.834
16,CCN(CC)S(=O)(=O)c1ccc(-c2csc(C)n2)cc1,-12.6
17,O=C(NCCc1cccc(F)c1)C1CCN(S(=O)(=O)c2ccccc2)CC1,-26.9
18,CC1CN(C(=O)CCC(=O)NCCCN2CCN(Cc3ccccc3)CC2)c2cc(Cl)ccc2O1 (centres unmarked),-76.1
19,Cc1c(C)c2c(OCC(=O)NCC(C)C)cc3c(c2oc1=O)CCC(C)(C)O3,6.44
20,Cl.O=C(CN1CCCCC1)Nc1cccc([N+](=O)[O-])c1,-2.28
